Assay results published in ChEMBL document CHEMBL4346735, “Discovery and pharmacological evaluation of indole derivatives as potent and selective RORγt inverse agonist for multiple autoimmune conditions” (Bioorg Med Chem Lett, 2019).
In brackets after ≈: the same amount, converted by molar mass.

What was measured:
[1] = Solubility of the compound at pH 2.1; conditions: buffer
[2] = Solubility of the compound at pH 4; conditions: buffer
[3] = Solubility of the compound at pH 7.4; conditions: buffer
[4] = target: T1, Nuclear receptor ROR-gamma (Homo sapiens, UniProt P51449); test: Inverse agonist activity at GST-tagged RORgammat LBD (unknown origin) using fluorescein-D22 co-activator peptide as substrate incubated for 1 hr by TR-FRET assay
T1 sequence (P51449 whole entry): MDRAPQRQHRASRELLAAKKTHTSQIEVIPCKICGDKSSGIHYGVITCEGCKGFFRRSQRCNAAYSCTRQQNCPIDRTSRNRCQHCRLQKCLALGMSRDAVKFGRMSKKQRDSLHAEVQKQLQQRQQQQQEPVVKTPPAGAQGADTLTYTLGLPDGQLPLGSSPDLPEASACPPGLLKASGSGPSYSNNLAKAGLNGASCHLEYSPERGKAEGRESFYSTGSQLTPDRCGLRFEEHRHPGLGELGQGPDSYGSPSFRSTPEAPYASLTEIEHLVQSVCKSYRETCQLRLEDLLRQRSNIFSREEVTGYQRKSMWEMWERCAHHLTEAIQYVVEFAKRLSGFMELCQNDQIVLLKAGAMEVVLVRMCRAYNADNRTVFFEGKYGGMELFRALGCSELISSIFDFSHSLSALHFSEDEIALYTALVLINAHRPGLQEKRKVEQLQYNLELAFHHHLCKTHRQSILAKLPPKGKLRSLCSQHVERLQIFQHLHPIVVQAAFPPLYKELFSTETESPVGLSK

[5] = target: T1, Nuclear receptor ROR-gamma; test: Transactivation of recombinant GAL4-DBD fused RORgammat LBD (unknown origin) expressed in HEK293T cells incubated for 18 to 24 hrs by dual-Glo luciferase assay; assay type: cell-based
Cytochrome P450 2C9 [6] = target: T2, Cytochrome P450 2C9 (Homo sapiens, UniProt P11712); test: Inhibition of CYP2C9 in human liver microsomes using diclofenac as substrate preincubated for 5 mins followed by NADPH addition measured after 10 mins by LC-MS/MS analysis
T2 sequence (P11712 whole entry): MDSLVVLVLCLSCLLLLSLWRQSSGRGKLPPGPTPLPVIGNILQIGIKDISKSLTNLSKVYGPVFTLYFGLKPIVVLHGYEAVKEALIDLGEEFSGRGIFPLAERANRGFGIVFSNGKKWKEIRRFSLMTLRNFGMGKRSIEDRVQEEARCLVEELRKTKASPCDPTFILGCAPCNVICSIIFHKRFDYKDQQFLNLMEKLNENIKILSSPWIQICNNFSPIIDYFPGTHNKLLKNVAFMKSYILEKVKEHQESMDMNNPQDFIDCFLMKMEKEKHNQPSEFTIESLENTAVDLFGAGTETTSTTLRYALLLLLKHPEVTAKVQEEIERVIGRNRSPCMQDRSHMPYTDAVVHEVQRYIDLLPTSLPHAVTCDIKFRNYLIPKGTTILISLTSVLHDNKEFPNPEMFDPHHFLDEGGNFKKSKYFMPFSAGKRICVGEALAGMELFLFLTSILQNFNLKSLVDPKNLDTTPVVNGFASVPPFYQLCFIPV

Cytochrome P450 2C9 [7] = target: T2, Cytochrome P450 2C9
Cytochrome P450 1A2 = target: T3, Cytochrome P450 1A2 (Homo sapiens, UniProt P05177); test: Inhibition of CYP1A2 in human liver microsomes using phenacetin as substrate preincubated for 5 mins followed by NADPH addition measured after 10 mins by LC-MS/MS analysis
T3 sequence (P05177 whole entry): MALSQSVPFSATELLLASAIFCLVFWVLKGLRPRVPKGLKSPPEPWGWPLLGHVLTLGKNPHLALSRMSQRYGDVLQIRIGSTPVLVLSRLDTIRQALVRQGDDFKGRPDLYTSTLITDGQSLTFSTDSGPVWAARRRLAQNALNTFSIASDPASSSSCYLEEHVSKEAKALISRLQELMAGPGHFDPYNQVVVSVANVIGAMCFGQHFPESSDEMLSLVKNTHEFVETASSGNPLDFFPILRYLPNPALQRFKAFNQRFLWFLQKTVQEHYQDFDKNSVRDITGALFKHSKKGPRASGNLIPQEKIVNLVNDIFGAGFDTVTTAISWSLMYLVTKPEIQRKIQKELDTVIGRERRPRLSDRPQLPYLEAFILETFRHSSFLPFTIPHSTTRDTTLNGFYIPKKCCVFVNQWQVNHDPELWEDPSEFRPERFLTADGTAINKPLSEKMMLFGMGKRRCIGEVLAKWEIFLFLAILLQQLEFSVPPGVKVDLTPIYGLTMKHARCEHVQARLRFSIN

Cytochrome P450 2C19 = Cytochrome P450 2C19 (Homo sapiens, UniProt P33261); test: Inhibition of CYP2C19 in human liver microsomes using (S)-mephenytoin as substrate preincubated for 5 mins followed by NADPH addition measured after 40 mins by LC-MS/MS analysis
Chain of Cytochrome P450 2C19 (P33261 whole entry): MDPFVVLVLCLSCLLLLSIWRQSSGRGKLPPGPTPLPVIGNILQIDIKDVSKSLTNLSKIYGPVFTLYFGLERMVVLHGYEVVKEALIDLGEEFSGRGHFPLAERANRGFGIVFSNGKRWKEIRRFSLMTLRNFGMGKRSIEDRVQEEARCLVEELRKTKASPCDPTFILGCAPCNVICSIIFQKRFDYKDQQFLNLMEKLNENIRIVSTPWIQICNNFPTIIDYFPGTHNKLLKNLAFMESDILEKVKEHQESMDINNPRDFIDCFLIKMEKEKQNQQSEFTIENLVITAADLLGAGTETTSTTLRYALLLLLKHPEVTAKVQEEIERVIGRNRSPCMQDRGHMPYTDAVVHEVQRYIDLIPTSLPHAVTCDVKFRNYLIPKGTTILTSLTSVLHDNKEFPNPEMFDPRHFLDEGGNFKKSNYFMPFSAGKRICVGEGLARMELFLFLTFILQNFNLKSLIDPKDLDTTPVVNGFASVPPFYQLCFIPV

Cytochrome P450 2D6 = Cytochrome P450 2D6 (Homo sapiens, UniProt P10635); test: Inhibition of CYP2D6 in human liver microsomes using dextromethorphan as substrate preincubated for 5 mins followed by NADPH addition measured after 10 mins by LC-MS/MS analysis
Chain of Cytochrome P450 2D6 (P10635 whole entry): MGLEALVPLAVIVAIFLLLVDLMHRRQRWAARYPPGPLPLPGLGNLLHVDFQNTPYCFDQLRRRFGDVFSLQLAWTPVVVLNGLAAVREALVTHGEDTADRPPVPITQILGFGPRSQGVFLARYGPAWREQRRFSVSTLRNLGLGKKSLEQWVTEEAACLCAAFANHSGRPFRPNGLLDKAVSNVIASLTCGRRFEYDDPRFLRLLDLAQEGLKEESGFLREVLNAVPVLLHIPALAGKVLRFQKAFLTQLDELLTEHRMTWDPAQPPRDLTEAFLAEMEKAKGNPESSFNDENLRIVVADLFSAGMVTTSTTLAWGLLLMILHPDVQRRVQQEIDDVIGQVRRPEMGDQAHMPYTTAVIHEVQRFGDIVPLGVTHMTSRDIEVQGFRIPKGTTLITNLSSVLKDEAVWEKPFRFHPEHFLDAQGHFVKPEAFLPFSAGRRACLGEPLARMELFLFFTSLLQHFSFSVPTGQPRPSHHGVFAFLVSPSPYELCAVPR

Q: For O=C([O-])c1ccc(-n2cc(C(=O)c3c(Cl)cccc3Cl)c3cccc(F)c32)cc1.[Na+], which solubility [1] is on record?
A: < 1 µM

Q: What about the solubility [2] of the same compound?
A: < 1 µM

Q: And the solubility [3]?
A: 1450 µM

Q: For O=C(O)c1ccc(-n2cc(C(=O)c3c(Cl)cccc3Cl)c3ccccc32)c(F)c1, which IC50 [4] is on record?
A: 0.0011 µM

Q: What about the IC50 [5] of the same compound?
A: 0.02 µM

Q: What about the IC50 (Cytochrome P450 2C9 [6]) of the same compound?
A: 5.9 µM

Q: For O=C(O)c1ccc(-n2cc(C(=O)c3c(Cl)cccc3Cl)c3cccc(F)c32)cc1, which IC50 (Cytochrome P450 2C9 [6]) is on record?
A: 11.1 µM

Q: What about the solubility [1] of the same compound?
A: < 2 µM

Q: And the solubility [2]?
A: 2 µM (≈ 0.856 µg/mL)

Q: What about the solubility [3] of the same compound?
A: 584 µM (≈ 250 µg/mL)

Q: What about the IC50 (Cytochrome P450 2C9 [7]) of the same compound?
A: > 17 µM

Q: For O=C(O)c1ccc(-n2cc(C(=O)c3c(Cl)cccc3C(F)(F)F)c3cccc(F)c32)cc1, which IC50 (Cytochrome P450 1A2) is on record?
A: > 50 µM

Q: And the IC50 (Cytochrome P450 2C9 [6])?
A: 9.9 µM

Q: What about the IC50 (Cytochrome P450 2C19) of the same compound?
A: 23.9 µM

Q: And the IC50 (Cytochrome P450 2D6)?
A: > 50 µM

Q: What about the solubility [1] of the same compound?
A: < 1 µM

Q: What about the solubility [2] of the same compound?
A: 5 µM (≈ 2.31 µg/mL)

Q: And the solubility [3]?
A: 120 µM (≈ 55.4 µg/mL)

Q: What does the source list for O=C(O)c1ccc(-n2cc(C(=O)c3c(Cl)cccc3Cl)c3cccc(F)c32)c(F)c1?
A: IC50 (Cytochrome P450 2C9 [6]): 6.4 µM; IC50 (Cytochrome P450 2D6): > 50 µM
